In PMC4336329 (PLoS ONE, 2015):
In all, about 310,000 compounds went through this assay and about 2,200 (0.71%) showed an effect of 50% or more. The effect is printed as a negative number. The list shows a part of the results.

These molecules were tested against human ether-à-go-go-related gene (hERG) potassium channel (human, UniProt Q12809) (assay: primary screen, population patch clamp on CHO cells stably expressing hERG).
human ether-à-go-go-related gene (hERG) potassium channel, sequence (Q12809 whole entry, looked up): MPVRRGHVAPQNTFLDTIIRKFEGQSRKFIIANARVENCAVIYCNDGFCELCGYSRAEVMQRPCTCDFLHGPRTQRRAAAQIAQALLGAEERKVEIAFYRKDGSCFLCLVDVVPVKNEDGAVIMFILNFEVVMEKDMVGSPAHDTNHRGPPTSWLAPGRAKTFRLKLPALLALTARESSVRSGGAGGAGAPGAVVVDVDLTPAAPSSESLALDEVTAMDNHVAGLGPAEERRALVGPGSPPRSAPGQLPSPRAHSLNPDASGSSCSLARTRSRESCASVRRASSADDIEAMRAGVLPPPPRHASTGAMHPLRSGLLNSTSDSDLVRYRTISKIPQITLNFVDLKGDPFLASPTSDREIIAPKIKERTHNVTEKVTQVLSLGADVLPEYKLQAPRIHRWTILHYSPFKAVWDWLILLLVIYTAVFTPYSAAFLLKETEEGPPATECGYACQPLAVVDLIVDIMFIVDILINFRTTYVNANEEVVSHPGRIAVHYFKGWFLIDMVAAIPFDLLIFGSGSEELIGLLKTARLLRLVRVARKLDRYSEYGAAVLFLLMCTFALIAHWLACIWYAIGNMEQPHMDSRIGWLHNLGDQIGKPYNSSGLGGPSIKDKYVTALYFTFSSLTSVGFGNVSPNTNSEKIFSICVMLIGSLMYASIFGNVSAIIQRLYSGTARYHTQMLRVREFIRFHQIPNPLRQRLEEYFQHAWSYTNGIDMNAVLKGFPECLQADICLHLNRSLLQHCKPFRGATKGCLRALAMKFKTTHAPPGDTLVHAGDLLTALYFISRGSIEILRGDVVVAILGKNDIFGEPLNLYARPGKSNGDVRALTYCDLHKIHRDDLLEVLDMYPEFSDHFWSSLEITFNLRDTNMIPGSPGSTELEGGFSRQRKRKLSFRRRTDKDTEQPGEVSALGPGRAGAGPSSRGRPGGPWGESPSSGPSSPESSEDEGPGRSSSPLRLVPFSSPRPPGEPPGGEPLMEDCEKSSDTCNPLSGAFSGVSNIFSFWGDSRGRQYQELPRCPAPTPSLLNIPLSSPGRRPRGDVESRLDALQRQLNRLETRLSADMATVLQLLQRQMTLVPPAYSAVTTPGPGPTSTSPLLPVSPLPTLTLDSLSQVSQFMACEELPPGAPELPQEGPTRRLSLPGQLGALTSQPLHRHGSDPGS

SMILES	hERG current change (%, negative = inhibition) at 1uM [%]
O=S(=O)(c1cccc(-c2csc(-c3ccccc3)n2)c1)N1CCOCC1	5.72
O=C(NC1(c2ccccc2)CC1)C1CCC(=O)N(Cc2ccc(Cl)cc2)C1 (stereo not shown)	7.09
Cc1ccccc1CN(C)C(=O)c1ccc2ccccc2n1	12.9
Cc1ccc(S(=O)(=O)N2CCN(S(=O)(=O)N3CCCCC3)CC2)c(C)c1	-3.76
CCCc1c(O)nc(SCC(=O)O)[nH]c1=O	26.8
O=C1CCCCC1S(=O)(=O)c1ccccc1 (stereo not shown)	-1.94
CCOC(=O)c1nn(-c2ccc(OC)cc2)c(=O)c2c(N)scc12	10.1
Cc1ccc2nc(=O)c(NNc3ccccc3)cnc2c1	21.2
Cc1ccc(Nc2[nH]c(=O)c3ccccc3c2C(=O)c2ccccc2)cc1	12.1
O=S(=O)(c1ccc(Cl)c(C(F)(F)F)c1)N1CCN(c2ccccn2)CC1	11.9
CCN(CC)S(=O)(=O)c1ccc(NC(=O)c2ccc(NS(C)(=O)=O)cc2)cc1	11.8
CCOC(=O)N1CCN(C(=O)CSCc2ccccc2)CC1	8.59
Cc1cc(NC(=O)CSCC(=O)Nc2cc(Cl)ccc2N2CCN(C)CC2)no1	9.87
N#C/C(=C\c1ccc(N2CCCCC2)c([N+](=O)[O-])c1)c1nn(-c2ccccc2)c(N)c1C#N	14.5
COc1ccc(/C=C/C(=O)NCCCN2CCCCCC2)cc1	-12.6
CCCC(=O)Nc1c2c(nn1-c1ccc(C)cc1)CS(=O)(=O)C2	14.4
CSc1cccc(NC(=O)COC(=O)C2CCN(S(=O)(=O)c3ccccc3)CC2)c1	6.91
COc1ccc(C(=O)Nc2nc3cc4c(cc3s2)OCO4)c(OC)c1	9.56
CCN(CC)c1ccc(-c2c(C#N)c(N)nc(OC)c2C#N)cc1	11
COc1cc(OC)cc(C(=O)NNC(=O)c2ccc(S(=O)(=O)N3CC(C)OC(C)C3)cc2)c1 (stereo not shown)	12
CCN1CCN(Cc2ccc(NC(=O)c3ccc(C)c(NC(=O)c4ccc5n[nH]nc5c4)c3)cc2C(F)(F)F)CC1	11.4
COC(=O)c1ccc(-n2c(C)ccc2-c2ccccc2)cc1	5

SMILES	hERG current change (%, negative = inhibition) at 1uM [%]
CCOC(=O)c1c(C)[nH]c(C)c1C(=O)CSc1nc(N)cc(=O)[nH]1	-1.72
Cn1c(=O)c2c(-c3ccccc3)n(-c3ccccc3O)cc2n(C)c1=O	4.07
Cc1cc(N2CCOCC2)nc2ccc(NC(=O)C3CCC(C)CC3)cc12 (stereo not shown)	-16.6
CC(C)C[C@H]1CN=C(Nc2ccccc2)N1CC1CCC(C(C)(C)C)CC1 (stereo partly shown)	-14.4
C=CCNC(=O)c1onc(CSc2ccccc2)c1C(=O)NCC=C	6.41
CC(C)Oc1ccc(C(=O)Nc2ccc(Cl)c(S(=O)(=O)Nc3ccc(Cl)cc3)c2)cc1	13
COc1ccc(Br)cc1-c1noc(-c2ccccc2F)n1	17.8
COc1cc(C(CCN2CCCCC2)c2c(OC)cc(OC)c3c(C)cc(=O)oc23)cc(OC)c1OC (stereo not shown)	-96.3
CC(=O)Nc1nc(NC(=O)/C=C/c2ccccc2)n(-c2ccccc2)n1	3.03
COc1cccc(C(=O)NCCSCc2ccccc2Cl)c1	9.14
C[C@H](O)[C@H](O)[C@H]1CNc2nc(N)[nH]c(=O)c2N1.Cl	5.49
COc1ccc(C(=O)Nc2cc(Cl)ccc2-n2cncn2)c(OC)c1OC	4.68
CCOc1ccc(Cc2nnc(N)s2)cc1OCC	2.08
CCc1[nH]nc2c1C1(CCN(C(=O)c3ccccc3)CC1)C(C#N)=C(N)O2	-6.15
O=C(NCCN1CCN(C(=O)c2cc3ccccc3oc2=O)CC1)c1cc2ccccc2oc1=O	-0.615
CCCS(=O)(=O)N1CCCC(C(=O)NCCc2ccc(OC)c(OC)c2)C1 (stereo not shown)	-0.42
CCn1cc2c(c1-c1cccc(C)c1)c(=O)n(C)c(=O)n2C	13.4
c1ccc(-n2ncc(-c3nn[nH]n3)n2)cc1	-0.154
NC(=O)C1CCCN(Cc2ccc3ccccc3c2)C1 (stereo not shown)	11.2
CSc1ccccc1C(=O)Nc1cccc(C(C)=O)c1	10
N#Cc1c(NCCCO)nc(-c2ccccc2)c2c1CCCC2	10.5
